Measurements reported in the supplement of paper PMC6531468.
The list shows a part of the results. These are enrichments in a pooled selection; single values are uncertain. Each score is taken over the longer molecules that contain the sequence shown.

tested on: IMP3 KH3-4; assay: 6-mer SELEX enrichment z-score vs GST control; IMP3 is the RNA-binding protein IGF2BP3; higher = more enriched by binding; settings: construct: KH3-4 (377-579); SELEX round: R4
Method: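 SELEX-seq with GST-tagged IMP3 KH3-4 (Pro377-Lys579) and an N40 RNA pool, round 4. 6-mer z-score of sequence-tag enrichment normalised to the corresponding GST SELEX round; RNA k-mers written as DNA (T for U).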

Sequence of IMP3 KH3-4 (chain, as listed by the source): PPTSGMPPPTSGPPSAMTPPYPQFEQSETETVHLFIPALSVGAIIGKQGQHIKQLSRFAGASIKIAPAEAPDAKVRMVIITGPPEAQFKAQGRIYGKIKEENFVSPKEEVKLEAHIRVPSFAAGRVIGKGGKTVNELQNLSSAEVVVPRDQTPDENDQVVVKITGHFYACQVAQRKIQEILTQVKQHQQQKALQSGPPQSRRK

**Q.** Which “6-mer SELEX enrichment z-score” value does the source give for CACGTC here?
**A.** Its value is -0.801.

**Q.** With GCGAGA as the sequence, how does the “6-mer SELEX enrichment z-score” value read?
**A.** The value was -0.489.

**Q.** For TTACAG, which “6-mer SELEX enrichment z-score” value is on record?
**A.** Its value is 0.973.

**Q.** CAGTAC was tested. Which “6-mer SELEX enrichment z-score” value did it give?
**A.** The value was -0.3.

**Q.** With TCTAAT as the sequence, how does the “6-mer SELEX enrichment z-score” value read?
**A.** The value was 0.58.

**Q.** With CGTTAA as the sequence, how does the “6-mer SELEX enrichment z-score” value read?
**A.** Its value is -0.389.

**Q.** How did the “6-mer SELEX enrichment z-score” value turn out when TTCTGG was run?
**A.** The value was 0.164.

**Q.** How did the “6-mer SELEX enrichment z-score” value turn out when CATGGA was run?
**A.** Its value is 0.444.

**Q.** How did the “6-mer SELEX enrichment z-score” value turn out when CCGCTA was run?
**A.** The value was -0.027.

**Q.** Which “6-mer SELEX enrichment z-score” value does the source give for TTGATC here?
**A.** The value was 0.196.

**Q.** How did the “6-mer SELEX enrichment z-score” value turn out when AAGCCC was run?
**A.** The value was -1.94.

**Q.** With CGGGAG as the sequence, how does the “6-mer SELEX enrichment z-score” value read?
**A.** The value was 0.212.

**Q.** Which “6-mer SELEX enrichment z-score” value does the source give for CCATTG here?
**A.** The value was -0.039.

**Q.** With ATCTTT as the sequence, how does the “6-mer SELEX enrichment z-score” value read?
**A.** The value was 0.593.

**Q.** How did the “6-mer SELEX enrichment z-score” value turn out when ACTCCT was run?
**A.** The value was -0.453.

**Q.** With ATTGTA as the sequence, how does the “6-mer SELEX enrichment z-score” value read?
**A.** The value was 0.915.

**Q.** How did the “6-mer SELEX enrichment z-score” value turn out when CGTTAG was run?
**A.** The value was -0.225.

**Q.** CGGCTC was tested. Which “6-mer SELEX enrichment z-score” value did it give?
**A.** The value was 0.171.

**Q.** CGTGAG was tested. Which “6-mer SELEX enrichment z-score” value did it give?
**A.** The value was -0.561.

**Q.** TGAGAC was tested. Which “6-mer SELEX enrichment z-score” value did it give?
**A.** Its value is -0.595.

**Q.** With AAAGGC as the sequence, how does the “6-mer SELEX enrichment z-score” value read?
**A.** Its value is 0.293.

**Q.** For GTGGAC, which “6-mer SELEX enrichment z-score” value is on record?
**A.** The value was -0.352.

**Q.** With AGTAGC as the sequence, how does the “6-mer SELEX enrichment z-score” value read?
**A.** Its value is -0.337.

**Q.** For GCAGGA, which “6-mer SELEX enrichment z-score” value is on record?
**A.** The value was 0.697.

**Q.** With TTACGC as the sequence, how does the “6-mer SELEX enrichment z-score” value read?
**A.** Its value is 0.392.

**Q.** Which “6-mer SELEX enrichment z-score” value does the source give for CAATGC here?
**A.** Its value is -0.345.

**Q.** AACTTT was tested. Which “6-mer SELEX enrichment z-score” value did it give?
**A.** Its value is 0.983.

**Q.** For ACGGGA, which “6-mer SELEX enrichment z-score” value is on record?
**A.** The value was 0.141.

**Q.** For CCCAGT, which “6-mer SELEX enrichment z-score” value is on record?
**A.** The value was -0.836.

**Q.** TAGAAC was tested. Which “6-mer SELEX enrichment z-score” value did it give?
**A.** The value was 0.188.

**Q.** Which “6-mer SELEX enrichment z-score” value does the source give for CTTAAG here?
**A.** Its value is -0.028.

**Q.** How did the “6-mer SELEX enrichment z-score” value turn out when AGTCGA was run?
**A.** The value was 0.3.

**Q.** For ATAAAC, which “6-mer SELEX enrichment z-score” value is on record?
**A.** Its value is 2.24.

**Q.** How did the “6-mer SELEX enrichment z-score” value turn out when ACGAAC was run?
**A.** The value was -1.31.

**Q.** With ATTTCC as the sequence, how does the “6-mer SELEX enrichment z-score” value read?
**A.** The value was 0.57.

**Q.** How did the “6-mer SELEX enrichment z-score” value turn out when GGTCAA was run?
**A.** The value was 0.133.

**Q.** Which “6-mer SELEX enrichment z-score” value does the source give for TTACTT here?
**A.** Its value is 0.933.

**Q.** Which “6-mer SELEX enrichment z-score” value does the source give for TCCTGT here?
**A.** Its value is -0.04.

**Q.** How did the “6-mer SELEX enrichment z-score” value turn out when AAAGAC was run?
**A.** The value was -0.365.
